# Laboratory results from the supplement of paper PMC4967469.
# pIC50: −log10 of the molar value. IC50 is the fitted dose that halves viability relative to control wells, and lower means more sensitive; a fit beyond the top or the lowest dose is shown as a bound at that dose. AUC, from the same fit, is the share of area under the viability curve across the 256-fold dose range; it is 1 without any effect and falls as sensitivity rises. Where the top dose is marked as inferred, it comes from the curve model; the source does not state it.
# Compound: CC1=C(C(=O)Nc2cc3cn[nH]c3cc2F)C(c2ccc(C(F)(F)F)cc2)CC(=O)N1 [GSK429286A]
# Test: Viability of human cancer cell lines after 72 h of drug (GDSC screen)
# Conditions: top dose inferred
# Experimental: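 Human cancer cell lines in 384-well plates, medium with 10% serum, drug for 72 h over a 256-fold dose range (nine 2-fold or five 4-fold steps up to the top dose). Adherent lines were fixed and stained with the nucleic acid dye Syto60, suspension lines read with resazurin; signal relative to control wells, capped at 0 and 100%. One two-parameter sigmoid per drug and line, fitted in a mixed model over all curves with the slope shared within a line.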
Cell Line,AUC,pIC50
"BV-173 (chronic myeloid leukaemia, suspension, top dose 20 µM)",0.926,< 4.70
"Becker (glioma, adherent, top dose 20 µM)",0.981,< 4.70
"BxPC-3 (pancreas, adherent, top dose 20 µM)",0.981,< 4.70
"C2BBe1 (large intestine, adherent, top dose 20 µM)",0.986,< 4.70
"C3A (liver, adherent, top dose 20 µM)",0.988,< 4.70
"C32 (melanoma, adherent, top dose 20 µM)",0.987,< 4.70
"C-4-I (cervix, adherent, top dose 20 µM)",0.982,< 4.70
"C-33-A (cervix, adherent, top dose 20 µM)",0.946,< 4.70
"CA46 (Burkitt lymphoma, suspension, top dose 20 µM)",0.925,< 4.70
"CADO-ES1 (Ewing sarcoma, suspension, top dose 20 µM)",0.801,5.00
"CAKI-1 (kidney, adherent, top dose 20 µM)",0.956,< 4.70
"CAL-12T (non-small cell lung carcinoma, adherent, top dose 20 µM)",0.929,< 4.70
"CAL-27 (head and neck, adherent, top dose 20 µM)",0.964,< 4.70
"CAL-29 (bladder, adherent, top dose 20 µM)",0.983,< 4.70
"CAL-33 (head and neck, adherent, top dose 20 µM)",0.947,< 4.70
"CAL-39 (cervix, adherent, top dose 20 µM)",0.982,< 4.70
"CAL-51 (breast, adherent, top dose 20 µM)",0.983,< 4.70
"CAL-54 (kidney, adherent, top dose 20 µM)",0.958,< 4.70
"CAL-62 (thyroid, adherent, top dose 20 µM)",0.975,< 4.70
"CAL-72 (osteosarcoma, adherent, top dose 20 µM)",0.983,< 4.70
"CAL-78 (chondrosarcoma, adherent, top dose 20 µM)",0.986,< 4.70

Cell Line,AUC,pIC50
"CAL-85-1 (breast, adherent, top dose 20 µM)",0.963,< 4.70
"CAL-120 (breast, adherent, top dose 20 µM)",0.917,< 4.70
"CAL-148 (breast, suspension, top dose 20 µM)",0.989,< 4.70
"CAMA-1 (breast, adherent, top dose 20 µM)",0.966,< 4.70
"CAPAN-1 (pancreas, adherent, top dose 20 µM)",0.983,< 4.70
"CAS-1 (glioma, adherent, top dose 20 µM)",0.874,< 4.70
"CCF-STTG1 (glioma, adherent, top dose 20 µM)",0.985,< 4.70
"CCK-81 (large intestine, adherent, top dose 20 µM)",0.99,< 4.70
"CCRF-CEM (lymphoblastic leukaemia, suspension, top dose 20 µM)",0.95,< 4.70
"CESS (acute myeloid leukaemia, suspension, top dose 20 µM)",0.951,< 4.70
"CFPAC-1 (pancreas, adherent, top dose 20 µM)",0.961,< 4.70
"CGTH-W-1 (thyroid, adherent, top dose 20 µM)",0.983,< 4.70
"CHL-1 (melanoma, adherent, top dose 20 µM)",0.982,< 4.70
"CHP-134 (neuroblastoma, suspension, top dose 20 µM)",0.572,5.68
"CHP-212 (neuroblastoma, adherent, top dose 20 µM)",0.89,< 4.70
"CHSA0011 (chondrosarcoma, adherent, top dose 20 µM)",0.944,< 4.70
"CHSA0108 (chondrosarcoma, adherent, top dose 20 µM)",0.582,5.66
"CHSA8926 (chondrosarcoma, adherent, top dose 20 µM)",0.807,4.80
"CL-11 (large intestine, adherent, top dose 20 µM)",0.987,< 4.70
"CMK (acute myeloid leukaemia, suspension, top dose 20 µM)",0.875,4.84
"COLO-205 (large intestine, suspension, top dose 20 µM)",0.987,< 4.70

Cell Line,AUC,pIC50
"COLO-320-HSR (large intestine, suspension, top dose 20 µM)",0.981,< 4.70
"COLO-668 (small cell lung carcinoma, adherent, top dose 20 µM)",0.921,< 4.70
"COLO-678 (large intestine, semi-adherent, top dose 20 µM)",0.982,< 4.70
"COLO-679 (melanoma, adherent, top dose 20 µM)",0.981,< 4.70
"COLO-680N (oesophagus, adherent, top dose 20 µM)",0.986,< 4.70
"COLO-684 (endometrium, suspension, top dose 20 µM)",0.967,< 4.70
"COLO-783 (melanoma, adherent, top dose 20 µM)",0.991,< 4.70
"COLO-792 (melanoma, adherent, top dose 20 µM)",0.972,< 4.70
"COLO-800 (melanoma, adherent, top dose 20 µM)",0.978,< 4.70
"COLO-824 (breast, adherent, top dose 20 µM)",0.982,< 4.70
"COLO-829 (melanoma, adherent, top dose 20 µM)",0.949,< 4.70
"COR-L23 (large cell lung carcinoma, adherent, top dose 20 µM)",0.942,< 4.70
"COR-L88 (small cell lung carcinoma, adherent, top dose 20 µM)",0.964,< 4.70
"COR-L95 (small cell lung carcinoma, adherent, top dose 20 µM)",0.97,< 4.70
"COR-L105 (lung adenocarcinoma, adherent, top dose 20 µM)",0.915,< 4.70
"COR-L279 (small cell lung carcinoma, suspension, top dose 20 µM)",0.944,< 4.70
"COR-L303 (small cell lung carcinoma, suspension, top dose 20 µM)",0.949,< 4.70
"COR-L311 (small cell lung carcinoma, suspension, top dose 20 µM)",0.692,5.35
"COR-L321 (lung, suspension, top dose 20 µM)",0.953,< 4.70
"CP50-MEL-B (melanoma, adherent, top dose 20 µM)",0.987,< 4.70
"CP66-MEL (melanoma, adherent, top dose 20 µM)",0.984,< 4.70

Cell Line,AUC,pIC50
"CPC-N (small cell lung carcinoma, suspension, top dose 20 µM)",0.978,< 4.70
"CS1 (bone, adherent, top dose 20 µM)",0.948,< 4.70
"CTB-1 (B-cell lymphoma, suspension, top dose 20 µM)",0.968,< 4.70
"CTV-1 (acute myeloid leukaemia, suspension, top dose 20 µM)",0.903,4.77
"CW-2 (large intestine, adherent, top dose 20 µM)",0.965,< 4.70
"Ca9-22 (head and neck, adherent, top dose 20 µM)",0.975,< 4.70
"Ca-Ski (cervix, adherent, top dose 20 µM)",0.934,< 4.70
"CaR-1 (large intestine, adherent, top dose 20 µM)",0.976,< 4.70
"Calu-3 (lung adenocarcinoma, adherent, top dose 20 µM)",0.983,< 4.70
"Calu-6 (lung adenocarcinoma, adherent, top dose 20 µM)",0.975,< 4.70
"Caov-3 (ovary, adherent, top dose 20 µM)",0.99,< 4.70
"Caov-4 (ovary, adherent, top dose 20 µM)",0.98,< 4.70
"Capan-2 (pancreas, adherent, top dose 20 µM)",0.985,< 4.70
"ChaGo-K-1 (non-small cell lung carcinoma, adherent, top dose 20 µM)",0.961,< 4.70
"D-247MG (glioma, adherent, top dose 20 µM)",0.97,< 4.70
"D-263MG (glioma, adherent, top dose 20 µM)",0.972,< 4.70
"D-283MED (medulloblastoma, adherent, top dose 20 µM)",0.991,< 4.70
"D-336MG (glioma, adherent, top dose 20 µM)",0.874,< 4.70
